# In the BET-seq Pho4 binding data (Le et al. 2018):
# Some of the results follow. These are noisy estimates, calculated here from bound and input reads.
# Target: T1, Pho4 (S. cerevisiae) (UniProt P07270)
# T1 sequence: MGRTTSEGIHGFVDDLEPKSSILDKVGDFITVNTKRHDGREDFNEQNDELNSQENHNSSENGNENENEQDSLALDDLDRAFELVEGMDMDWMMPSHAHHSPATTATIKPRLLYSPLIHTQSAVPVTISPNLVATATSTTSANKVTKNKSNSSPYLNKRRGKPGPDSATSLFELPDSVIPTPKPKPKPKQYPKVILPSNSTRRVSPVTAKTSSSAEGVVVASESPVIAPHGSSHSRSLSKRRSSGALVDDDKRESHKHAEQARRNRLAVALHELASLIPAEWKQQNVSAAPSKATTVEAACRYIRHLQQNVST
# Assay: relative binding free energy (BET-seq); higher = weaker binding
# Conditions: reference: library average
row,Sequence,relative binding free energy [kcal/mol]
1,ACCTACACGTGGGGGG,0.05
2,TTGTTCACGTGATTTG,0.34
3,ACCGTCACGTGTTTTT,0.27
4,GTATACACGTGTTATA,0.04
5,AGTTGCACGTGACTGT,0.05
6,AAGTGCACGTGGCAGT,-0.09
7,CTGGTCACGTGAATTG,0.34
8,GCTCGCACGTGTGTGT,-0.1
9,GTTATCACGTGGGCAG,0.08
10,CGGTACACGTGATGTG,0.17
11,TTGCGCACGTGGAGAG,-0.06
12,GTCATCACGTGATTTG,0.35
13,CTCTGCACGTGTGTGT,0.01
14,GGGTTCACGTGTGTAT,0.34
15,GTTGTCACGTGCGTTT,0.18
16,CCGGGCACGTGGCCGG,-0.17
17,GTATGCACGTGGCGAG,-0.1
18,GTTGTCACGTGAAGGT,0.31
19,ATCGGCACGTGGTGGT,-0.15
20,TTGAACACGTGTGTGA,0.08
21,CGTAGCACGTGTGAGT,0.01
22,AAAAGCACGTGGATGT,-0.11
23,GGCAACACGTGCGTGG,0
24,CGAGGCACGTGATGAT,0.17
25,TCATGCACGTGGTGCT,-0.18
26,TTTGTCACGTGACCGG,0.06

row,Sequence,relative binding free energy [kcal/mol]
1,GAGAGCACGTGAGGGG,0.11
2,AAGTTCACGTGTTATA,0.22
3,TCAGACACGTGAGGTT,0.22
4,GGTAGCACGTGTTTGT,0.03
5,AGGTTCACGTGACGCG,0.45
6,CGAGGCACGTGTGTGA,0.03
7,CGGCGCACGTGGGGCT,-0.27
8,AGAGGCACGTGGCAGG,-0.21
9,AGTGTCACGTGTGTAT,0.08
10,ATAAGCACGTGGGTCT,-0.22
11,CGTTTCACGTGGCTGT,0.11
12,AGCCGCACGTGTAGGG,-0.14
13,TTGGTCACGTGGATAG,0.17
14,CAATTCACGTGATGTA,0.42
15,CGCTGCACGTGGGATG,-0.06
16,TCTTACACGTGTCGGG,0.23
17,ATGGACACGTGTGGAT,0.12
18,TGTAGCACGTGGACTT,-0.13
19,TGTCACACGTGTGTGG,0.08
20,ATCGACACGTGGAGGG,-0.05
21,GTGAACACGTGGTATG,-0.07
22,GAATGCACGTGTGGAG,-0.01
23,CGCAGCACGTGGGGGG,-0.24
24,TTAGGCACGTGGGTGT,-0.19
25,TGATTCACGTGGTGTC,0.28
26,CATTTCACGTGAATGT,0.41

row,Sequence,relative binding free energy [kcal/mol]
1,GCTAGCACGTGGGGTT,-0.21
2,CGGCGCACGTGGGAGT,-0.31
3,GGTAGCACGTGAAGTG,0.25
4,GTAATCACGTGTAGGG,0.05
5,GTTTGCACGTGCTATA,-0.09
6,CGGTTCACGTGTTGTA,0.16
7,TATTACACGTGTTAAT,-0.01
8,TGGGGCACGTGACAGG,0.03
9,GTCGTCACGTGGGGGA,-0.17
10,CTGGTCACGTGACGGT,0.17
11,AGTCGCACGTGGAAGT,0.03
12,TCAGTCACGTGGGTAG,-0.05
13,GTGGGCACGTGTGCAG,-0.05
14,ATTCACACGTGCTGGG,0.04
15,CGGATCACGTGTTCGG,0.24
16,TACGGCACGTGAAGGT,0.16
17,TGTCGCACGTGTGGAA,0
18,GGCGGCACGTGGGGGA,-0.11
19,TTAGGCACGTGTTTGT,-0.14
20,CTAATCACGTGTGTGT,0.06
21,GGTGGCACGTGAAGTC,0.29
22,GGGTACACGTGTGGCT,0.09
23,TTATGCACGTGGAGTA,-0.05
24,TGCATCACGTGGGGGT,0.04
25,TTAGTCACGTGGGTCT,-0.05
26,ATGGTCACGTGAGTCT,0.14

row,Sequence,relative binding free energy [kcal/mol]
1,AGAGGCACGTGGGAAG,-0.07
2,AGGTGCACGTGTTGGT,0.04
3,GTGTTCACGTGGTACG,0.21
4,AAGTGCACGTGAGGGT,0.23
5,TTTAGCACGTGAAAGT,0.24
6,AGTCTCACGTGTTAAT,0.22
7,GGCTTCACGTGATGGT,0.32
8,GGCTGCACGTGTGTCT,0.03
9,CTAGTCACGTGTATGT,-0.03
10,GGAAGCACGTGTTAGA,-0.04
11,ATTGTCACGTGCGGAG,-0.06
12,GTGGGCACGTGGGGTC,-0.16
13,AAGATCACGTGGTCGG,0.09
14,GATAGCACGTGGAAGG,0.07
15,AAGTGCACGTGGGAGC,-0.06
16,ATATACACGTGTTAAG,0.05
17,CTGTGCACGTGATTTG,0.11
18,CGTGGCACGTGTGAAG,0.06
19,GGTGACACGTGTTTGG,0.13
20,TTGGTCACGTGAATGT,0.4
21,GTAGTCACGTGCGTTG,-0.05
22,AATGGCACGTGGCATG,-0.23
23,AGGGCCACGTGCTTGG,-0.26
24,ACTGGCACGTGTTGGT,-0.02
25,AAGGACACGTGGTGAA,0.04
26,ATGGCCACGTGTTGTG,-0.14

row,Sequence,relative binding free energy [kcal/mol]
1,GTTAGCACGTGGAGTA,-0.09
2,TGGGACACGTGTGGCA,0.13
3,TGCTACACGTGTTTAG,0.03
4,CCTGGCACGTGTTTGG,-0.12
5,GGAGGCACGTGGGCGT,-0.07
6,CTGTACACGTGATGTG,0.04
7,AAGTTCACGTGTTAGG,0.36
8,ACGTTCACGTGTCAGG,0.36
9,TTCGGCACGTGGGAGC,-0.09
10,GGGGACACGTGTATTT,0.12
11,TTCATCACGTGAAGTT,0.54
12,GCTCGCACGTGTGGGC,0.03
13,TTGTACACGTGTTGGC,0.16
14,GAGGCCACGTGCGGTG,-0.05
15,CTTGGCACGTGTTGCT,-0.07
16,CGTTGCACGTGTGGTC,-0.07
17,GATCGCACGTGTAGGT,0.04
18,AGCATCACGTGGTTGG,0.09
19,TATTACACGTGATGTT,0.24
20,GATTACACGTGTTATT,0.06
21,GAAATCACGTGGTGGT,0.18
22,TGACGCACGTGCGGGT,-0.16
23,GTGGCCACGTGGAGCG,-0.1
24,TGTAGCACGTGATGGT,0.12
25,TTCGTCACGTGTGAGG,0.21
26,ATTTGCACGTGATTGT,0.15

row,Sequence,relative binding free energy [kcal/mol]
1,GAATTCACGTGCTTGG,0.39
2,CATTGCACGTGTGAAT,0.26
3,TACGGCACGTGTGAGG,0.06
4,ATTGTCACGTGAGTGA,0.28
5,TGGGTCACGTGAACTT,0.16
6,TAAGTCACGTGTTTCA,0.07
7,CTAGGCACGTGATGTT,-0.04
8,TTCAGCACGTGTGGTT,-0.07
9,AGGGACACGTGGTACA,-0.06
10,ATGTGCACGTGTTGCG,-0.01
11,ACTTACACGTGGGTGT,-0.03
12,GGTTACACGTGAAGTT,0.35
13,AGTGCCACGTGGGTCG,-0.37
14,CAGATCACGTGCTGGG,0.24
15,GTTGCCACGTGGAGGA,0.06
16,GCGTGCACGTGAATTG,0.22
17,TGCAGCACGTGGGGTC,-0.25
18,TATCGCACGTGGGTAG,-0.1
19,GATCTCACGTGAGTTT,0.54
20,CGGTTCACGTGTATGT,0.2
21,TTATACACGTGTGAGG,0.19
22,TTTGTCACGTGATCCG,0.25
23,TGGCTCACGTGCGGGT,0.21
24,GCCCGCACGTGGGTGG,-0.2
25,ATTCGCACGTGGCGGG,-0.02
26,AATTGCACGTGGAGCT,-0.03

row,Sequence,relative binding free energy [kcal/mol]
1,CTGGGCACGTGGGGAA,-0.25
2,TGTCGCACGTGCTGTT,-0.18
3,GCTATCACGTGGTGAG,0.17
4,TGTAGCACGTGCTAGA,-0.04
5,GCTTACACGTGTGTGA,0.33
6,TTGTCCACGTGGGACG,0.04
7,GATTGCACGTGGGTTT,-0.01
8,ACGGGCACGTGATTGG,0.05
9,TAGATCACGTGGGAAA,0.13
10,AGTATCACGTGGGAGC,0.03
11,GAGTTCACGTGCTGGT,0.43
12,TTTTTCACGTGGATTC,0.25
13,GTCAGCACGTGAAGTG,0.26
14,TGAAGCACGTGTATAT,0.03
15,ATAATCACGTGATATA,0.29
16,CTAGGCACGTGGCGGG,-0.2
17,TGCTTCACGTGTTTTA,0.19
18,GTCTGCACGTGGGAGT,-0.08
19,TATAGCACGTGTCTTG,-0.08
20,ATTGGCACGTGTGGCA,-0.18
21,TGTACCACGTGCGTTG,-0.06
22,AGATTCACGTGTTTCG,0.16
23,TTGAACACGTGAGTGA,0.32
24,AGTATCACGTGCAAGT,0.22
25,CGGGTCACGTGAGATG,0.41
26,TTGCTCACGTGTGGGT,0.14

row,Sequence,relative binding free energy [kcal/mol]
1,GAATGCACGTGTGAGT,-0.05
2,ATGGCCACGTGGGTTT,-0.18
3,AGGTACACGTGCGGGA,-0.02
4,GGAGCCACGTGTGATG,-0.01
5,GTAAGCACGTGTGTGG,0.06
6,AGTATCACGTGTTCTG,0.04
7,GAGCACACGTGGAGGT,0.15
8,CGAGTCACGTGTGATG,0.13
9,GGATTCACGTGGTTGA,0.29
10,AAGGGCACGTGGAGGC,-0.27
11,GGGGTCACGTGTTCTA,0.29
12,CGTCTCACGTGTAGGG,-0.03
13,TGTGCCACGTGTTGGT,-0.17
14,GTAAGCACGTGGTGTG,-0.18
15,GCGGCCACGTGTGGAT,0.11
16,AGGTCCACGTGGTAGT,-0.09
17,TAGTGCACGTGCAAGT,-0.1
18,TAATACACGTGGTGTA,-0.06
19,GGTGACACGTGGGAGA,-0.09
20,CTGGGCACGTGTGCTT,-0.15
21,ACTGGCACGTGGTATG,-0.29
22,TAGTACACGTGTTTGG,0.08
23,GGGTGCACGTGGAAGC,-0.07
24,TTTCTCACGTGTCTGT,0.14
25,GAGGTCACGTGAGTGT,0.39
26,GTGTCCACGTGGGGGT,-0.07

row,Sequence,relative binding free energy [kcal/mol]
1,GATATCACGTGGCGGT,0.14
2,TTGTTCACGTGTGTAG,0.26
3,TGTCGCACGTGGCTAT,-0.11
4,AAGTTCACGTGGACTA,0.53
5,GGTTTCACGTGCTCGT,0.4
6,TCAAGCACGTGGTAGG,-0.19
7,TGGTTCACGTGGAAGA,0.38
8,GGTCTCACGTGTTGTA,0.34
9,TGTGTCACGTGTGTTC,0.16
10,CTTTTCACGTGATTCT,0.28
11,CGTGTCACGTGCTGGA,0
12,TAATGCACGTGGGGCT,-0.16
13,CTAGACACGTGGTGGT,-0.15
14,AGGTGCACGTGCGGGA,-0.09
15,TAGTACACGTGGCGGT,-0.1
16,TTTAACACGTGGGTCA,-0.22
17,ATTAACACGTGTTTAA,-0.04
18,GAGTGCACGTGAGGAT,0.32
19,GGGGTCACGTGGTTTC,0.2
20,ATGTTCACGTGGGATT,0.3
21,GAAGTCACGTGATGGA,0.36
22,GTGGTCACGTGAGCGC,0.36
